# Data: PubChem BioAssay AID687022 (Broad Institute, 2013)
# The campaign covered roughly 1,000 compounds. About 360 (36%) were called active.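 How the source made its calls: active means Fitted curve of melting temperature shift crosses the 1.0 threshold at or below the sample's highest valid tested concentration; inconclusive means Flat fit with activity 30 to 70, or invalid fit; inactive means Opposite direction, flat within 30, or no crossing.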 The list lacks most of the strong results.
# Molecular target: Fibroblast growth factor 22 (Homo sapiens) (UniProt Q9HCT0)
# Chain of UniProt Q9HCT0 (Q9HCT0 whole entry, looked up): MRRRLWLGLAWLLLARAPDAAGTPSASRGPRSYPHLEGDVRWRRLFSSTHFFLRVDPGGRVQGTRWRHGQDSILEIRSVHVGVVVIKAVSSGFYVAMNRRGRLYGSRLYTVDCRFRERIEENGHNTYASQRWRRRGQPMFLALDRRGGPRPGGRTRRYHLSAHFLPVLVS
# Experiment: binders of human FGF22 protein, dose response, FGF22 synaptogenesis inhibitor project, biophysical, thermal shift, cherry-pick (AID 687022); further: reference of the scale not given here
# Conditions: recombinant FGF22 thermal shift, SYPRO orange melting; at 38 µM (top of the series) unless noted
row,SMILES,Tm shift activity
1,CCCN(C)C[C@@H]1OCCCC[C@@H](C)Oc2ccc(NC(=O)NC(C)C)cc2C(=O)N([C@@H](C)CO)C[C@@H]1C,inactive: -0.164%
2,CC(=O)Nc1ccc(S(=O)(=O)Nc2ccn(Cc3ccccc3Cl)n2)cc1,inactive: -0.493%
3,O=C(C[C@H]1CC[C@H]2[C@@H](COC[C@H](O)CN2CC2CCOCC2)O1)NCC1CCCCC1,inactive: -0.095% [at 42 µM]
4,CC1CN(C(=O)C(C)N2CCN(c3ccccc3Cl)CC2)CC(C)O1 (stereo unspecified),inactive: -0.188%
5,O=C(N[C@H]1C=C[C@H](CC(=O)N2CCCCC2)O[C@H]1CO)c1cccc(F)c1,inactive: 0.293%
6,O=C(C[C@@H]1CC[C@H]2[C@@H](COC[C@@H](O)CN2C(=O)c2ccccc2F)O1)NCc1ccccc1,inactive: 0.089% [at 42 µM]
7,O=C(Cc1cccnc1)N[C@H]1CC[C@H](CCn2cc(-c3ccccc3F)nn2)O[C@H]1CO,inactive: -0.128%
8,CC(C)(CNS(=O)(=O)c1ccc2c(c1)OCCO2)N1CCOCC1,inactive: -0.045%
9,COc1cccc(NC(=O)N2C[C@H](O)COC[C@@H]3O[C@@H](CC(=O)NC4CCC4)CC[C@H]32)c1,inactive: -0.128%
10,COc1ccc(NC(=O)N(C)C[C@@H]2Oc3ccc(NS(=O)(=O)c4ccccc4)cc3C(=O)N([C@H](C)CO)C[C@H]2C)cc1,inactive: 0.043% [at 42 µM]
11,CC(C)C#Cc1ccc([C@H]2[C@H](CO)N3C(=O)CN(C(=O)C4CCCCC4)C[C@@H]23)cc1,inactive: -1.29% [at 19.5 µM]
12,C=CCOc1ccc2c(c1)C(=NO)c1cc(OCC=C)ccc1-2,inactive: -0.021%
13,OC[C@@H]1[C@@H](c2ccc(-c3cccnc3)cc2)[C@@H]2CN(Cc3ccccn3)CCCCN12,inactive: -0.223%
14,Cc1ccc(S(=O)(=O)N(C)/N=C/c2ccc(N(C)C)cc2)cc1,inactive: -0.176%
15,COc1ccc(C(=O)C2CCCN(C(=O)c3cc(C(C)C)no3)C2)cc1F (stereo unspecified),inactive: -0.204%
16,O=S(=O)(/N=C(/Nc1nccs1)c1ccc(F)cc1)c1ccccc1,inactive: 0.04%
17,Cc1ccc(S(=O)(=O)N(C)C[C@@H]2Oc3cc(C4=CCCC4)ccc3S(=O)(=O)N([C@@H](C)CO)C[C@@H]2C)cc1,inactive: -0.131% [at 42 µM]
18,O=C(Nc1cccc(F)c1)N1C[C@@H]2[C@H](c3ccccc31)[C@H](CO)N2C(=O)c1cccnc1,inactive: 0.485% [at 42 µM]
19,Cc1cc(C)c(C)c(S(=O)(=O)Nc2ccccc2C(=O)O)c1C,inactive: 0.641% [at 5 µM]
20,NNC(=O)CN1C(=O)C2(OCCO2)c2ccccc21,inactive: -0.218%
21,O=C(N[C@@H]1C=C[C@H](CC(=O)N2CCCCC2)O[C@@H]1CO)c1cccc(F)c1,inactive: 0.107%
22,CCOC(=O)C1(C)CCCN(C(=O)c2cccc(C#N)c2)C1 (stereo unspecified),inactive: -0.156%
23,O=C(NCCc1ccc2c(c1)OCCO2)c1cccc(F)c1,inactive: -0.125%

row,SMILES,Tm shift activity
1,C[C@@H]1CCCCO[C@H](CN(C)C(=O)C2CCCCC2)[C@H](C)CN([C@H](C)CO)C(=O)c2cc(NS(C)(=O)=O)ccc2O1,inactive: -0.034%
2,CN(Cc1ccccc1)C(=O)c1[nH]cnc1C(=O)NC1CCN(C(=O)OC(C)(C)C)CC1,inactive: -0.131%
3,CC(=O)c1ccc(S(=O)(=O)N2CCN(CC(=O)Nc3ccc(Cl)c([N+](=O)[O-])c3)CC2)cc1,inactive: 0.023%
4,CC1C(=O)Nc2ccc(S(=O)(=O)NCCc3ccc(Cl)cc3)cc2NC1=O (stereo unspecified),inactive: -0.037%
5,NS(=O)(=O)c1ccc2c(c1)C(=NO)c1cc(S(N)(=O)=O)ccc1-2,inactive: 0.643%
6,C[C@H]1CN([C@@H](C)CO)S(=O)(=O)c2ccc(/C=C/c3ccccc3)cc2O[C@@H]1CN(C)Cc1ccc(C(=O)O)cc1,inactive: -0.154% [at 42 µM]
7,O=C(Nc1cccc2ccccc12)c1cccc([N+](=O)[O-])c1,inactive: 0.033%
8,CCOCCCNS(=O)(=O)c1ccc(NC(=O)c2ccccc2)cc1,inactive: 0.014%
9,C/C=C/c1ccc2c(c1)O[C@@H](CN(C)Cc1ccncc1)[C@@H](C)CN([C@@H](C)CO)S2(=O)=O,inactive: -0.079% [at 42 µM]
10,COc1cccc(NC(=O)CN2CCN(S(=O)(=O)c3ccc(F)cc3)CC2)c1,inactive: -0.156%
11,O=C(Nc1ccc2c(c1)OCO2)c1cnn2cccnc12,inactive: -0.154%
12,C[C@H]1CN([C@@H](C)CO)C(=O)c2cc(NS(=O)(=O)c3ccccc3)ccc2O[C@@H]1CN(C)Cc1ccc(C(=O)O)cc1,inactive: -0.154%
13,Cc1cccc(C(=O)NNC(=O)c2ccc(NS(=O)(=O)c3cccs3)cc2)c1C,inactive: -0.21%
14,CCC(C)N(C(=O)COc1ccc(-c2nnco2)cc1)C1CCS(=O)(=O)C1 (stereo unspecified),inactive: -0.201%
15,CN(C(=O)Cn1nnc2ccccc2c1=O)C1CCCCC1,inactive: -0.128%
16,O=C(C1CC1)N1[C@H](CO)[C@H]2c3ccccc3N(S(=O)(=O)c3ccccc3)C[C@H]21,inactive: -0.233%
17,COCCNC(=O)[C@H]1[C@H](CO)[C@H]2Cn3c(ccc(-c4ccc(F)cc4)c3=O)[C@@H]1N2C(=O)NC(C)C,inactive: 0.158% [at 42 µM]
18,COc1cccc(NC(=O)N[C@@H]2CC[C@@H](CC(=O)Nc3ccccc3)O[C@H]2CO)c1,inactive: 0.248%
19,O=C(NCC[C@@H]1CC[C@@H](NS(=O)(=O)c2ccccc2)[C@@H](CO)O1)c1ccc2c(c1)OCO2,inactive: -1.36% [at 42 µM]
20,Cc1c2c(n3c(nc4ccccc43)c1C#N)N(CCN(C)C)CC2,inactive: -0.163%
21,CCCn1c(=O)[nH]c(=O)c2c1nc(-c1cccs1)n2CCOC,inactive: 0.093%
22,CCCNC(=O)Nc1ccc2c(c1)C(=O)N(C)C[C@H](OC)[C@@H](C)CN(C(=O)c1ccccc1F)[C@H](C)CO2,inactive: 0.294%
23,COc1cccc(S(=O)(=O)Nc2ccc3c(c2)[C@@H]2C[C@H](CC(=O)NC4CCCCC4)O[C@@H](CO)[C@@H]2O3)c1,inactive: -0.228%
